Data reported in PubChem BioAssay AID1508642 (National Center for Advancing Translational Sciences (NCATS), 2021).
Among all 43,000 compounds or so, about 200 (0.47%) were called active. About 12% were inconclusive and are not listed. Calls come from the whole dose curve; as a rule, active = well fitted cell-killing curve with a large enough effect; inconclusive = small, poorly fitted or top-dose-only effect, or effect the other way; inactive = flat fitted curve, though single readings scatter. Some of the results follow.

Assay: Cell viability qHTS assay in S16 Pmp22-F2sN cells; note: nearly all actives have a fitted effect of over 65% in size
Conditions: S16 Pmp22-F2sN Schwann cells (luciferase reporters placed in the Pmp22 gene) viability, CellTiter-Glo, 24 h; series mostly up to 57.5 µM; activity change, negative = cytotoxicity: at the top concentration
Method in brief: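 Luminescence from CellTiter-Glo, read by CCD camera after a 15 min room-temperature incubation, served as the viability signal. Reporter Schwann cells (S16 Pmp22-F2sN) had been treated with pin-transferred compounds for 24 h at 37C.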
% is set by controls: 0 for no effect and ±100 for the full control effect; potency is the fitted concentration of half-maximal effect.

Structure (SMILES)	activity change, negative = cytotoxicity	Potency
CCCc1nn2c(=O)cc(COC(=O)c3cccc(NC(=O)c4cccs4)c3)nc2s1	inactive: 16.9%	–
COc1ccc(C(=O)NCC(c2cccnc2)N2CCN(c3ccccc3)CC2)cc1 (stereo not given)	inactive: -2.51%	–
COc1cccc(Cn2c(=O)cc(C)c3c(C)nn(C)c32)c1	inactive: -14.8%	–
CCOc1cccc(C2c3[nH]c4ccccc4c3CCN2C(=O)CSc2ccccc2)c1 (stereo not given)	inactive: -2.85%	–
Cc1cccc(C(=O)N2CCc3cc(CNC(=O)COc4ccc(Cl)cc4)ccc32)c1	inactive: 6.67%	–
CCOc1ccc(NC(=O)Cn2c(=O)n(-c3cccc(Cl)c3)c(=O)c3c2c2cc(C)ccc2n3C)cc1	inactive: 12.4%	–
COc1cc(NC(=O)c2ccc3oc(=O)c(S(=O)(=O)c4ccccc4)cc3c2)cc(OC)c1	inactive: -2.52%	–
COc1cc2c(=O)c(C(=O)c3ccc(C)c(C)c3)cn(Cc3ccc(F)cc3)c2cc1OC	inactive: 3.98%	–
CCOc1ccccc1NC(=O)c1ccc2c(c1)CCN2S(=O)(=O)c1ccc(C)cc1	inactive: 7.5%	–
Cc1ccccc1NC(=O)CSc1cn(CC(=O)N2CCCCCC2)c2ccccc12	inactive: -6.77%	–
CCSc1nnc2c(n1)OC(c1cc(OC)c(OC)c(OC)c1)Nc1ccccc1-2 (stereo not given)	inactive: -15.1%	–
CCOc1cc(CNC(=O)Cn2c(=O)c3cccn3c3ccc(F)cc32)cc(OCC)c1OCC	inactive: 4.98%	–
CCOC(=O)c1c(C)[nH]c(C)c1S(=O)(=O)NCC(=O)Nc1ccc(C)c(N(C)C)c1	inactive: 14.6%	–
CC(C)c1ccc(NC(=O)C2CCN(S(=O)(=O)c3cccc4nonc34)CC2)cc1	inactive: 19.2%	–
Cc1ccccc1Nc1c(-c2ccc(Cl)cc2)nc2c(C)cccn12	inactive: -9.08%	–
COc1ccc(NC(=O)Cn2c(=O)n(CCc3ccccc3)c(=O)c3c4c(sc32)CCCC4)cc1	inactive: 24.8%	–
Cc1ccc(N2C(=O)CSC23C(=O)N(Cc2ccccc2F)c2ccccc23)cc1F (stereo not given)	inactive: 8.02%	–
CCOC(=O)c1c(NC(=O)c2nc(SCC)ncc2Cl)sc2c1CCCC2	inactive: 5.54%	–
COc1cc(OC)c(NC(=O)c2cc3c(=O)oc4ccc(C)cc4c3s2)cc1Cl	inactive: 1.89%	–
COc1ccc(CNC(=O)Cc2ccc(NC(=O)N3CCSc4ncccc43)cc2)cc1OC	inactive: -1.16%	–
Cc1cc(NC(=O)c2cc(-c3ccc(Cl)cc3)on2)n(-c2ccccc2)n1	inactive: 14.7%	–
CCc1cccc(C)c1NC(=O)C1CCCN1S(=O)(=O)c1cccc2nsnc12 (stereo not given)	inactive: 8.23%	–
O=C(Cn1c(=O)c2cccn2c2ccccc21)NCc1ccccc1F	inactive: 10.4%	–
COC(=O)c1ccc(NC(=O)Cn2cnc3c2c(=O)n(C)c(=O)n3C)cc1	inactive: 1.62%	–

Structure (SMILES)	activity change, negative = cytotoxicity	Potency
Cc1cccc(N(CC(=O)NCCSCc2ccccc2)S(=O)(=O)c2ccccc2)c1C	inactive: 1.61%	–
Cc1nc(N2CCCC2)c2c(C(=O)N3CCN(c4cc(Cl)ccc4C)CC3)c(C)oc2n1	inactive: -12.7%	–
CCn1c(=O)c(=O)n(CC)c2cc(S(=O)(=O)Nc3ccc(C)cc3)ccc21	inactive: 6.48%	–
Cc1ccc(NC(=O)C2CCCN(S(=O)(=O)c3c(C)noc3C)C2)cc1 (stereo not given)	inactive: 0.0949%	–
Clc1ccc(-n2c(Cc3ccccc3)nnc2SCc2nc(-c3cccs3)no2)cc1	inactive: -15.9%	–
Nc1c(C(=O)Nc2ccccc2)sc2nc3c(cc12)CN(Cc1ccccc1)CC3	inactive: -0.879%	–
Cc1cccc(-n2c(=O)c3c4c(sc3n3c(C)nnc23)CCCC4)c1	inactive: 8.8%	–
COc1ccc(NC(=O)c2oc3ccccc3c2NC(=O)C2CCCCC2)c(OC)c1	inactive: 9.63%	–
CCOc1cc(C#N)c(-n2nnc3c(sc4nc(C)cc(C)c43)c2=O)cc1OCC	inactive: -2.94%	–
COc1ccccc1Nc1ncnc2scc(-c3ccc(F)cc3)c12	inactive: -28.4%	–
Cc1ccc(CNC(=O)c2ccc(CS(=O)(=O)Cc3ccc(C)cc3)o2)cc1	inactive: -1.96%	–
CCOC(=O)c1ccc(Nc2nn3c(=O)c4ccccc4nc3s2)cc1	inactive: 8.13%	–
COc1cc(OC)c(NC(=O)N2CCC(CN3CCCC3)CC2)cc1Cl	inactive: 11.9%	–
COc1ccc(OC)c(NC(=O)c2ccc3c(Cl)c4c(nc3c2)CCCC4)c1	inactive: 17%	–
CCCCN(C)C(=O)Cn1cnc2sc(C)c(S(=O)(=O)N3CCC(C)CC3)c2c1=O	inactive: -15.2%	–
CCCCN(CCCNC(=O)c1cc(Nc2ccccc2OC)nc2ccccc12)c1ccccc1	inactive: 9.74%	–
COc1ccc(CNC(=O)c2cccn2-c2nnc(N3CCCC3)s2)c(OC)c1	inactive: 4.7%	–
COc1ccc(C2(CNC(=O)C(=O)Nc3ccccc3C)CCCC2)cc1OC	inactive: -7.41%	–
CCN(CC)c1ccc(C2Nc3ccccc3-c3cc(C)nn32)cc1 (stereo not given)	inactive: -8.01%	–
COc1ccc(-n2c(SCC(=O)NCc3ccccc3)nc3c([nH]c4ccccc43)c2=O)cc1	inactive: 0.0641%	–
Cc1ccc(N(Cc2cccs2)C(=O)c2ccco2)cc1	inactive: 2.84%	–
COc1cc(Nc2nc(SCC(=O)c3ccc(Cl)c(Cl)c3)nc3ccccc23)cc(OC)c1	inactive: -6.04%	–
O=C(CCC1N=C2c3ccccc3N=C(SCC(=O)Nc3ccc(F)cc3)N2C1=O)NCc1ccco1 (stereo not given)	inactive: -1.23%	–
CC(C)N(C(=O)Cn1cc(S(=O)(=O)Cc2ccc(Cl)cc2)c2ccccc21)C(C)C	inactive: 9.63%	–

Structure (SMILES)	activity change, negative = cytotoxicity	Potency
COc1ccc(Nc2nn(-c3ccc(OC(F)(F)F)cc3)nc2C(C)=O)cc1	inactive: -0.976%	–
Cc1cc(C(=O)NCc2ccccc2)c2c(C)nn(-c3cccc(F)c3)c2n1	inactive: -14.5%	–
COc1ccc(NC(=O)CC2Nc3ccccc3NC2=O)cc1 (stereo not given)	inactive: 24.4%	–
CCOc1ccc(NC(=O)c2ccc3c(SCC(=O)O)c4c(nc3c2)CCCC4)cc1	inactive: -2.37%	–
Cc1ccc(C(=O)N2CCc3cc(CNS(=O)(=O)c4ccc(Cl)s4)ccc32)cc1	inactive: 16.6%	–
Cc1ccc(C)c(N2CCN(C(=O)C3CCN(c4nc(-c5ccc(C(C)C)cc5)no4)CC3)CC2)c1	inactive: -19.5%	–
CC(C(=O)Nc1cccc(C#N)c1)n1nc(-c2ccccc2)c2c(c1=O)CCCC2 (stereo not given)	inactive: -2.23%	–
Fc1ccc(-c2nc(Nc3ccc(F)c(Cl)c3)nc3c2COc2ccccc2-3)cc1	inactive: -0.459%	–
CCOc1ccc(C2CC(=O)n3nc(-c4ccc(C)cc4)nc3S2)cc1OC (stereo not given)	inactive: -1.71%	–
CC1=C(C(=O)Nc2ccc(C)cc2C)C(c2ccccc2[N+](=O)[O-])n2ncc(C(=O)Nc3ccccc3)c2N1 (stereo not given)	inactive: -23%	–
CCOC(=O)C1CCCN(C(=O)c2ccc3c(c2)N(Cc2ccccc2)C(=O)c2ccccc2S3(=O)=O)C1 (stereo not given)	inactive: -3.4%	–
O=C(Nc1ccc(NC(=O)c2cc3ccccc3o2)cc1)c1ccccc1	inactive: 8.21%	–
Cn1cc(S(=O)(=O)c2ccc(Cl)cc2)c(=O)c2cc(F)c(N3CCCCCC3)cc21	inactive: -2.79%	–
O=C(CN1CCN(S(=O)(=O)c2cc(Cl)ccc2Cl)CC1)Nc1cccc(F)c1	inactive: 1.76%	–
COc1ccccc1N1CCN(C(=O)c2ccc(CS(=O)c3ccccc3C)o2)CC1 (stereo not given)	inactive: -1.96%	–
COc1ccc(CCN2C(=O)c3oc4cc(C)cc(C)c4c(=O)c3C2c2ccc(F)cc2)cc1OC (stereo not given)	inactive: -0.308%	–
O=C(NC1CC1)c1ccc(Cn2c(SCc3cccc(F)c3)nc3cccnc32)cc1	inactive: -11.2%	–
O=C(NCC(c1cccnc1)N1CCc2ccccc2C1)c1ccc(F)c(F)c1 (stereo not given)	inactive: -13%	–
CCC(CC)C(=O)Nc1ccc(OCc2cc(=O)n3c4c(sc3n2)CCCC4)cc1	inactive: -3.03%	–
CCS(=O)(=O)N1CCc2cc(C(=O)NCc3ccc(OC)cc3)ccc21	inactive: 20.6%	–
Cn1cc(S(=O)(=O)c2cccc(Cl)c2)c(=O)c2cc(F)c(N3CCCCCC3)cc21	inactive: 2.78%	–
CC(=O)N1CCc2cc(CNS(=O)(=O)c3ccc(F)cc3)ccc21	inactive: 4.04%	–
CCc1ccc(-c2cn3c(n2)sc2cc(C(=O)NC4CCCCCC4)ccc23)cc1	inactive: 11.6%	–
O=C(NCc1cccc(Cl)c1)c1cc2c(s1)-c1ccccc1OC2	inactive: -5.54%	–

Structure (SMILES)	activity change, negative = cytotoxicity	Potency
CCc1c(C)sc2c1CCN(Cc1cccc(F)c1)C2c1ccccc1 (stereo not given)	–	active: 10 µM
COc1ccc(Cl)cc1Nc1sc(C(=O)c2ccccc2)c(N)c1C(=O)Nc1ccccc1	inactive: -0.776%	–
Cc1ccc(NC2=C(c3ccc(C(F)(F)F)cc3)C(=O)c3ccccc32)cc1C	inactive: -1.07%	–
CC(=O)Nc1ccc(C(=O)CSc2nnc(-c3ccccc3)n2-c2ccccc2)cc1	inactive: 18%	–
Cc1ccc(-c2cc(C(=O)NCc3cnn(C)c3C)c3cc(Br)ccc3n2)cc1	inactive: 13.8%	–
Cc1ccc(S(=O)(=O)c2nc(-c3ccccc3F)oc2N2CCCCC2)cc1	inactive: -2.01%	–
COCCc1nn2c(=O)cc(COC(=O)c3ccc4c(c3)OCO4)nc2s1	inactive: -5.34%	–
Cc1cccc(-c2nc(S(=O)(=O)c3ccc(F)cc3)c(N3CCN(c4ccccc4)CC3)o2)c1	inactive: 10.1%	–
Cc1ccc(CCNC(=O)c2ccc3c(c2)N(Cc2cccc(C)c2)C(=O)c2ccccc2S3(=O)=O)cc1	inactive: 9.03%	–
CC(C)c1ccc(NC(=O)c2cc3c(s2)-c2ccccc2SC3)cc1	inactive: -14.1%	–
CCOC(=O)c1c(C)[nH]c(CCC(=O)NCCCN2CCN(c3ccc(F)cc3)CC2)c1C	inactive: -6.29%	–
CCOC(=O)c1ccccc1NC(=O)Cn1cc(C(=O)c2cccc(OC)c2)c(=O)c2ccc(C)nc21	inactive: 7.23%	–
CCc1ccc(N=C2NC(=O)CC(C(=O)Nc3ccc(OC)cc3)S2)cc1 (stereo not given)	inactive: 15.9%	–
COc1cc2c(cc1OC)C(COc1ccccc1OC)N(C(=O)CC(C)C)CC2 (stereo not given)	inactive: -4.34%	–
Cc1cc(=O)[nH]c2nnc(SCC(=O)NC(C)(C)C)n12	inactive: 1.41%	–
O=C(CN1C(=O)COc2ccc(S(=O)(=O)N3CCCCCC3)cc21)NCc1ccc(Cl)cc1	inactive: -3.62%	–
COc1ccc(OC)c(NC(=O)Cc2coc3ccc(C(C)C)cc23)c1	inactive: 4.2%	–
CCOC(=O)c1[nH]c(C)c(CCC(=O)NCc2ccccc2)c1C	inactive: -12.2%	–
CCOC(=O)c1c(-c2ccccc2)oc2ccc(N(C(C)=O)S(=O)(=O)c3cc(C)ccc3C)cc12	inactive: -7.66%	–
CC(=O)N1CCOc2cc(S(=O)(=O)Nc3cccc(C(F)(F)F)c3)c(Cl)cc21	inactive: -18.1%	–
CCOC(=O)c1ccccc1NC(=O)C(=O)Nc1ccc2nc3n(c(=O)c2c1)CCCCC3	inactive: 7.98%	–
CCc1cccc(-n2c(C)nc3c(cnn3-c3ccc(Cl)cc3)c2=O)c1	inactive: 1.62%	–
COc1ccc(NC(=O)C2CCN(S(=O)(=O)c3ccc4[nH]c(=O)ccc4c3)CC2)c(OC)c1	inactive: -1.15%	–
